Experimental data published in PubChem BioAssay (NCATS).
The shares of active, inactive and inconclusive entries below differ from those in the screen. For some assays here: Where the call is inconclusive, the potency comes from a doubtful curve fit. The source made the active and inactive calls. Unless noted, calls come from the whole dose curve; as a rule, active = well fitted curve in the direction sought with a large enough effect; inconclusive = small, poorly fitted or top-dose-only effect, or another doubt; inactive = no such curve, though single readings can be large; an effect the other way counts as inactive or inconclusive.

What was measured:
[1] = system: Zika virus NS2B-NS3 protease (linked construct); assay: Primary screen NINDS Rhodamine qHTS for Zika virus inhibitors (AID 1347160); note: potency is the fitted concentration of half-maximal effect; nearly all actives have a fitted effect of over 55% in size
Procedure, shortened: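 Kinetic fluorescence (Ex 480 nm, Em 540 nm) over 15 min with 1.5 microM Rhodamine110 peptide and 25 nM linked protease.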

[2] = OV-KATE Cancer Cell Toxicity qHTS against the NCATS CANVASS Library (AID 1347345); note: potency is the fitted concentration of half-maximal effect
Procedure, shortened: (§1)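 Toxicity is measured over 72 h of compound exposure at 37 degrees C under 5% CO2. Each well holds 1000 cells, pre-incubated for 4 hours before dosing across an 11-point range. CellTiter-Glo luminescence gives viability.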

[3] = U-118MG Cancer Cell Toxicity qHTS against the NCATS CANVASS Library (AID 1347351); note: potency is the fitted concentration of half-maximal effect
Procedure, shortened: as §1

[4] = COV-362 Cancer Cell Toxicity qHTS against the NCATS CANVASS Library (AID 1347352); note: potency is the fitted concentration of half-maximal effect
Procedure, shortened: (§2)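 Cells at 1000/well were given compound 4 h after plating in an 11-point series. Viability was read by CellTiter-Glo luminescence after 72 h at 37 degrees C.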

[5] = UWB1.289-WTBRCA1 Cancer Cell Toxicity qHTS against the NCATS CANVASS Library (AID 1347354); note: potency is the fitted concentration of half-maximal effect
Procedure, shortened: as §2

[6] = HEK-293 Cancer Cell Toxicity qHTS against the NCATS CANVASS Library (AID 1347355); note: potency is the fitted concentration of half-maximal effect; nearly all actives have a fitted effect of over 65% in size
Procedure, shortened: as §2

[7] = KB-8-5-11 Cancer Cell Toxicity qHTS against the NCATS CANVASS Library (AID 1347364); note: nearly all actives have a fitted effect of over 75% in size; note: potency is the fitted concentration of half-maximal effect
Procedure, shortened: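 KB-8-5-11 cells, 500/well in DMEM + 10% FBS, given compounds in an 11-point series. Incubated 72 h at 37 °C. Viability by CellTiter-Glo luminescence. Confirmation also run with 1 uM tariquidar.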

[8] = KB-3-1 Cancer Cell Toxicity qHTS against the NCATS CANVASS Library (AID 1347366); note: potency is the fitted concentration of half-maximal effect; nearly all actives have a fitted effect of over 75% in size
Procedure, shortened: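 KB-3-1 cells (500 cells/well) in DMEM + 10% FBS were treated with compounds for 72 hr at 37C, 5% CO2. Viability was read as CellTiter-Glo luminescence after 10 minutes at room temperature.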

[9] = MCF7 Cancer Cell Toxicity qHTS against the NCATS CANVASS Library (AID 1347369); note: potency is the fitted concentration of half-maximal effect
Procedure, shortened: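 MCF7, 500 cells/well; cpds 11-pt qHTS; 72 hr, 37C/5% CO2; CellTiterGlo ATP luminescence.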

[10] = J3T Cancer Cell Toxicity qHTS against the NCATS CANVASS Library (AID 1347371); note: potency is the fitted concentration of half-maximal effect
Procedure, shortened: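 J3T dog glioma cells, 500 per well, treated 72 h at 37C with compounds (11-point qHTS); viability from ATP content by CellTiterGlo luminescence; bortezomib titration as control.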

[11] = qHTS for Inflammasome Signaling Inhibitors: IL-1-beta AlphaLISA screen against the NCATS CANVASS Library (AID 1347379);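 note: human THP-1 cells primed with LPS then triggered with ATP; secreted IL-1B measured as AlphaLISA emission at 615 nm; potency is the fitted concentration of half-maximal effect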
Procedure, shortened: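 THP-1 cells pretreated 1 hr with compound (up to 57.5 uM final), then stimulated with LPS (250 ng/mL final) and ATP (1.25 mM final). Secreted IL-1B measured by AlphaLISA after 16 hr; glyburide as positive control.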

[12] = qHTS for Antimalaria activity screened against the NCATS CANVASS Library (AID 1347380); note: potency is the fitted concentration of half-maximal effect; nearly all actives have a fitted effect of over 40% in size
Procedure, shortened: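 Red blood cells infected with P. falciparum Dd2 (2.5% hematocrit final, 0.3% parasitemia) were exposed to compounds in an 11-point qHTS series for 72 hr at 37C under 5% O2 and 5% CO2. Lysis buffer with SYBR Green was then added for 18 hr, and fluorescence was read at 485/535 nm.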

[13] = qHTS assay for small molecule disruptors of mitochondrial membrane potential screened against the NCATS CANVASS Library (AID 1347389); note: nearly all actives have a fitted effect of over 60% in size; note: potency is the fitted concentration of half-maximal effect
Procedure, shortened: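 HepG2 cells (2,000/well) plated overnight, then exposed to compounds in 11-point qHTS series for 1 h at 37C before 30 min Mito-MPS dye; depolarization read as fall in red aggregate (590 nm) to green monomer (535 nm) fluorescence.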

[14] = qHTS for activators of dead-cell proteases activity screened against the NCATS CANVASS Library (AID 1347392);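 note: luminescence from protease leaking out of membrane-damaged cells cleaving impermeant substrate; potency is the fitted concentration of half-maximal effect; rising signal means more cytotoxicity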
Procedure, shortened: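 Compounds are pin-transferred onto attached HepG2 cells, giving 11 final concentrations. After 5 h at 37C, AAF-aminoluciferin reagent is added and luminescence is recorded at room temperature.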

[15] = qHTS for inhibitors of ER calcium dysfunction: SERCaMP assay screened against the NCATS CANVASS Library (AID 1347393); details: SH-SY5Y GLuc-SERCaMP (Gaussia luciferase released on ER calcium loss) secretion, thapsigargin, luminescence; series mostly up to 76.6 µM; note: potency is the fitted concentration of half-maximal effect; nearly all actives have a fitted effect of over 40% in size
Procedure, shortened: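 Thapsigargin-induced ER calcium depletion drives GLuc-SERCaMP secretion from SH-SY5Y cells; compounds given 16 h beforehand were scored by lowered coelenterazine luminescence after 4 h challenge.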

[16] = qHTS for inhibitors of Wild type Zika virus screened against the NCATS CANVASS Library (AID 1347396); note: potency is the fitted concentration of half-maximal effect
Procedure, shortened: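 Protection against wild-type Zika cytopathic effect is measured in African green monkey Vero 766 cells exposed to an 11-point compound series. Surviving cells are quantified by CellTiter Glo luminescence after 72 h.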

[17] = qHTS for inhibitors of Rabies Virus screened against the NCATS CANVASS Library (AID 1347402; calls by dose curve; note: potency is the fitted concentration of half-maximal effect)
[18] = OV-SAHO Cancer Cell Toxicity qHTS against the NCATS CANVASS Library (AID 1347348); details: OV-SAHO viability, CellTiter-Glo luminescence, 72 h; series mostly up to 38.3 µM; note: nearly all actives have a fitted effect of over 55% in size
Procedure, shortened: as §1

[19] = G06 Cancer Cell Toxicity qHTS against the NCATS CANVASS Library (AID 1347368); note: nearly all actives have a fitted effect of over 60% in size
Procedure, shortened: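 G06 dog glioma cells, 500 per well, exposed 72 hr at 37C, 5% CO2 to compounds in an 11-point series. Cytotoxicity read as ATP content by CellTiterGlo luminescence.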

[20] = qHTS for Hypoxia signaling pathway (HIF-1) agonists against the NCATS CANVASS Library (AID 1347375)
Procedure, shortened: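 HRE-bla ME-180 cells (0.5% dialyzed FBS) were pre-incubated 5 hrs at 37C, then exposed to compounds in an 11-point series for 17 hrs. Read-out was CCF4-AM beta-lactamase FRET (460/530 nm emissions), with CellTiter-Glo viability in the same wells.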

[21] = UWB1.289 Cancer Cell Toxicity qHTS against the NCATS CANVASS Library (AID 1347347); note: nearly all actives have a fitted effect of over 60% in size
Procedure, shortened: as §1

[22] = Secretion counterscreen for inhibitors of the SERCaMP assay screened against the NCATS CANVASS Library (AID 1347390);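 note: light from luciferase secreted into medium read as a measure of general secretion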
Procedure, shortened: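 SH-SY5Y cells expressing constitutively secreted GLuc, 1000 cells/well, attached 4 h at 37C, then exposed to compounds (0.001 - 77 uM, 11-pnt series) for 20 h. Coelenterazine added; luminescence read to flag secretory-pathway interferers.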

Measured: Potency
Tags give direction and shape of the fitted curve.

CCCCC[C@@H]1OC(=O)[C@@H](C)N(C)C(=O)[C@H](CCCCC)OC(=O)C(C)N(C)C(=O)[C@H](CCCCC)OC(=O)[C@@H](C)N(C)C(=O)[C@H](CCCCC)OC(=O)C(C)N(C)C1=O (some centres undefined)
active: [1] 11 µM | [2] 8.38 µM | [3] 14.9 µM | [4] 9.41 µM | [5] 16.7 µM | [6] 4.18 µM | [8] 9.35 µM | [13] 4.17 µM | [16] 11.7 µM
inconclusive: [7] 0.833 µM [cytotoxic, full curve, poor fit] | [9] 10.4 µM [cytotoxic, full curve] | [10] 33.2 µM [cytotoxic, single point] | [11] 43.2 µM [inhibitor, single point] | [12] 0.334 µM [cytotoxic, full curve, poor fit] | [14] 37.1 µM [activator, partial curve, poor fit] | [15] 1.22 µM [inhibitor, partial curve] | [17] 5.22 µM [inhibitor, full curve]

COc1ccc(C23Oc4cc(OC)cc(OC)c4[C@](O)([C@H](c4ccccc4)C2C(=O)NCCCCNC(=O)c2ccccc2)[C@@H]3O)cc1 (some centres undefined)
active: [1] 49.3 µM
inconclusive: [15] 19.3 µM [inhibitor, partial curve, poor fit]
inactive: [18] | [19] | [20] | [13]

C=CC(C)(C)[C@@]12C[C@H]3C(=O)N/C(=C/c4cnc[nH]4)C(=O)N3[C@@H]1Nc1ccccc12
inactive: [21] | [7] | [22]
inconclusive: [1] 44 µM [inhibitor, partial curve] | [6] 26.4 µM [cytotoxic, single point] | [15] 7.67 µM [inhibitor, full curve]
